# Data as given in PubChem BioAssay (Tox21).
# Several values for one entry are separate records, joined by “and”; a condition that tells them apart may be missing. Identical values can stand only once. Inconclusive means that the source gave no clear call. Such entries were picked first, then a sample of the others. For some of these results: A potency beside an inconclusive call is a rough fit, not a confirmed value. Some compounds were tested as several samples or in several runs, with calls that do not always agree. Activity calls are given as the source filed them. Unless noted, the call rests on the fitted dose curve; in most records, active means well fitted curve in the direction sought with a large enough effect in the repeat runs; inconclusive means weak or mixed curves; inactive means no such curve, though single readings can be large; an effect the other way counts as inactive or inconclusive.
# What was measured:
# [1] = qHTS assay for identifying genotoxic compounds that show differential cytotoxicity against isogenic chicken DT40 cell lines with known DNA damage response pathways - wild type cell line (AID 743012); details: DT40 wild type chicken cells viability, CellTiter-Glo, 40 h; activity change, negative = cytotoxicity: at 68.4 µM (top of the series) unless noted; further: nearly all actives have a fitted effect of over 60% in size; further: potency means the concentration at half of the fitted maximal effect; on activity change, negative = cytotoxicity: on the % scale 0 is the no-effect control and ±100 the full control effect
# Summary of the method: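 Quantitative HTS on parental DT40 cells: 40 h compound treatment at 37 C/5% CO2, with viability then determined by CellTiter-Glo luminescence. Values serve as the DNA repair-proficient reference for differential cytotoxicity.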
# [2] = qHTS assay to identify small molecule antagonists of the thyroid receptor (TR) signaling pathway - cell viability counter screen (AID 743064); details: GH3.TRE-Luc viability, CellTiter-Fluor, 24 h; activity change, negative = cytotoxic: at 70.3 µM (top of the series) unless noted; further: nearly all actives have a fitted effect of over 50% in size; further: potency means the concentration at half of the fitted maximal effect; on activity change, negative = cytotoxic: on the % scale 0 is the no-effect control and ±100 the full control effect
# Summary of the method: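 GH3.TRE-Luc rat pituitary cells dosed after 4 hr plating, co-stimulated with T3 at 1 nM final, incubated 23.5 h at 37 C. Viability measured in the same wells by CellTiter-Fluor fluorescence after 30 min further at 37 C.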
# [3] = qHTS assay to identify small molecule antagonists of the thyroid receptor (TR) signaling pathway (AID 743065); further: nearly all actives have a fitted effect of over 55% in size; further: potency means the concentration at half of the fitted maximal effect; on activity, negative = inhibition: on the % scale 0 is the no-effect control and ±100 the full control effect
# Summary of the method: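 GH3.TRE-Luc rat pituitary cells (two TREs driving luciferase) were dosed with compound, then stimulated with 1 nM T3 (final) for 23.5 h at 37 C. ONE-Glo luminescence was the read-out, with CellTiter-Fluor fluorescence as the cytotoxicity counter-screen.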
# [4] = target: Estrogen receptor (Homo sapiens) (UniProt P03372); experiment: qHTS assay to identify small molecule antagonists of the estrogen receptor alpha (ER-alpha) signaling pathway (AID 743069; active means well fitted curve in the direction sought with a large enough effect in the signal ratio in the repeat runs, not every such curve was filed as active; inconclusive means weak or mixed curves, or effect the other way; inactive means no such curve, though single readings can be large or run the other way; the % refers to the signal ratio; further: potency means the concentration at half of the fitted maximal effect; on activity, negative = inhibition: on the % scale 0 is the no-effect control and ±100 the full control effect); details: HEK293 ER-alpha-UAS-bla, beta-lactamase ratio, antagonist mode; activity, negative = inhibition: at 69.4 µM (top of the series) unless noted
# Chain of UniProt P03372 (P03372 whole entry, looked up): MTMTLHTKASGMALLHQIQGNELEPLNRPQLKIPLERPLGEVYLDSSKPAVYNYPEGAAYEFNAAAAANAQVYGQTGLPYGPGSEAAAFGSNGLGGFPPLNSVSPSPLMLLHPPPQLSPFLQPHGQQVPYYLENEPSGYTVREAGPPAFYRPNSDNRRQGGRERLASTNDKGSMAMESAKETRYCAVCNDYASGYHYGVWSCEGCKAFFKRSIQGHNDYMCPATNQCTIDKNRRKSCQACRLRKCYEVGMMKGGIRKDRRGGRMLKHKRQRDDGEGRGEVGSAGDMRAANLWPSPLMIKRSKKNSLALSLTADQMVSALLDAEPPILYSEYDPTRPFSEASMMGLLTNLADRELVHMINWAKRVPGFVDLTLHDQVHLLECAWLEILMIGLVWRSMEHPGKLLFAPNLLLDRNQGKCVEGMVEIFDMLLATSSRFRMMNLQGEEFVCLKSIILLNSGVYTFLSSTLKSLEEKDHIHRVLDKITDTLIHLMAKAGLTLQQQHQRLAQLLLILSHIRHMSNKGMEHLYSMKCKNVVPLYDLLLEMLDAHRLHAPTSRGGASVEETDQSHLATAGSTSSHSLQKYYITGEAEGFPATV
# Summary of the method: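 HEK293 ER-alpha-UAS-bla GripTite cells, held overnight in 2% charcoal-stripped FBS, 5,000 cells/well, preincubated 4 h, then compound plus 17beta-estradiol for 18 h at 37C. Beta-lactamase read by LiveBLAzer B/G FRET substrate, 2 h at room temperature.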
# [5] = qHTS assay to identify small molecule antagonists of the estrogen receptor alpha (ER-alpha) signaling pathway - cell viability counter screen (AID 743074; calls by dose curve;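 further: HEK293 cells carrying ER-alpha-UAS-bla reporter stimulated with 17beta-estradiol; nearly all actives have a fitted effect of over 45% in size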; further: potency means the concentration at half of the fitted maximal effect)
# [6] = qHTS assay to identify small molecule antagonists of the estrogen receptor alpha (ER-alpha) signaling pathway using the BG1 cell line - cell viability counter screen (AID 743081);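 further: compound given together with 17beta-estradiol as the ER stimulus; potency means the concentration at half of the fitted maximal effect; nearly all actives have a fitted effect of over 45% in size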
# [7] = target: Androgen receptor (Homo sapiens) (UniProt P10275); experiment: qHTS assay to identify small molecule agonists of the androgen receptor (AR) signaling pathway (AID 743036; active means well fitted activation curve with a large enough effect in the signal ratio in the repeat runs, with a control signal flat, not every such curve was filed as active; inconclusive means weak or mixed curves, or effect the other way; inactive means no such curve, though single readings can be large or run the other way; the % refers to the signal ratio; further: potency means the concentration at half of the fitted maximal effect); details: HEK293 AR-UAS-bla GripTite, beta-lactamase FRET ratio, 16 h; activation: at 62.4 µM (top of the series) unless noted
# Chain of UniProt P10275 (P10275 whole entry, looked up): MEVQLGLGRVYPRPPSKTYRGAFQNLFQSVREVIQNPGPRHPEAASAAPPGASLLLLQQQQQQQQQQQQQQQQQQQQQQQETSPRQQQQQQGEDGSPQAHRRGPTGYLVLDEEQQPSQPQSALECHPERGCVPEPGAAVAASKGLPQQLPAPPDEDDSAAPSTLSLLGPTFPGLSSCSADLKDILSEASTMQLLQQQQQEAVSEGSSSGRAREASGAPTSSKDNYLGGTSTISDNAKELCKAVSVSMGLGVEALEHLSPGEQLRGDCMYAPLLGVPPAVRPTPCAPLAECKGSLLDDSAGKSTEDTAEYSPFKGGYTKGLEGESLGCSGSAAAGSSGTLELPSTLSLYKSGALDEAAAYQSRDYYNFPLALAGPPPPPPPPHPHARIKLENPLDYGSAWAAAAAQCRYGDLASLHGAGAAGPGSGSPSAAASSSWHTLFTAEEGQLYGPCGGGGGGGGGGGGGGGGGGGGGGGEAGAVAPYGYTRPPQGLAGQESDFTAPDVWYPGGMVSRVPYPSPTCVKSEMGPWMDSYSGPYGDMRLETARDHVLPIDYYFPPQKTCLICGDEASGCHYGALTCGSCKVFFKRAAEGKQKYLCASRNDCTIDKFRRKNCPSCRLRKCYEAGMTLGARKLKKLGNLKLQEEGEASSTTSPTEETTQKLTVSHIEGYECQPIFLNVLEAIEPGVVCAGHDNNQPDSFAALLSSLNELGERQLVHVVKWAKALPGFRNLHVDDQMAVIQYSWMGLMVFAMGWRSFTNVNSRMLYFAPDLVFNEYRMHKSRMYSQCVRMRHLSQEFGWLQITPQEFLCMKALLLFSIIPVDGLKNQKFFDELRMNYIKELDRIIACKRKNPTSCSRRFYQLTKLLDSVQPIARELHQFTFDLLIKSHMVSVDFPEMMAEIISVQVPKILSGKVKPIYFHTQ
# Summary of the method: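 AR-UAS-bla HEK293 cells, plated 4 h before dosing, were treated with compound for 16 h at 37C. beta-Lactamase reporter read after 2 h with LiveBLAzer B/G FRET substrate at room temperature.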
# [8] = qHTS assay to identify small molecule antagonists of the androgen receptor (AR) signaling pathway - cell viability counter screen (AID 743033; further: potency means the concentration at half of the fitted maximal effect; nearly all actives have a fitted effect of over 45% in size); details: AR-bla HEK293 viability, CellTiter-Glo luminescence, 16 h; activity change, negative = cytotoxicity: at 58.5 µM (top of the series)
# [9] = qHTS assay to identify aromatase inhibitors - cell viability counter screen (AID 743084); details: MCF-7 aro ERE viability, CellTiter-Fluor, 24 h; activity change, negative = cytotoxicity: at 70.3 µM (top of the series);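 further: cells stimulated with testosterone during compound exposure; nearly all actives have a fitted effect of over 55% in size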; further: potency means the concentration at half of the fitted maximal effect
# [10] = target: Androgen receptor (Homo sapiens) (UniProt P10275); experiment: qHTS assay to identify small molecule antagonists of the androgen receptor (AR) signaling pathway (AID 743035; active means well fitted inhibition curve with a large enough effect in the signal ratio in the repeat runs, not every such curve was filed as active; inconclusive means weak or mixed curves, or effect the other way; inactive means no such curve, though single readings can be large or run the other way; the % refers to the signal ratio; further: potency means the concentration at half of the fitted maximal effect); details: HEK293 AR-UAS-bla, R1881-stimulated, beta-lactamase FRET, 16 h; activity change, negative = inhibition: at 58.5 µM (top of the series) unless noted
# Summary of the method: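 Cell line: GeneBLAzer AR-UAS-bla GripTite (HEK293). Stimulus: R1881 added after compound. Exposure: 16 h, 37C, 5% CO2. Readout: LiveBLAzer B/G FRET fluorescence after 2 h at room temperature.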
# [11] = qHTS assay to identify small molecule antagonists of the estrogen receptor alpha (ER-alpha) signaling pathway using the BG1 cell line (AID 743080; calls by dose curve;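 further: BG1 cells stimulated with 17beta-estradiol alongside compound; potency means the concentration at half of the fitted maximal effect; nearly all actives have a fitted effect of over 25% in size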); details: BG1Luc4E2 ERE-luciferase antagonist mode, luminescence; activity change, negative = inhibition: at 70.3 µM (top of the series) unless noted
# Summary of the method: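 Seeding, 24 h rest, compound transfer from DMSO, 17beta-estradiol addition, 21.5 h incubation, CellTiter-Fluor (30 min, 37 C), then ONE-Glo (30 min, room temperature): this sequence was run on BG1-Luc-4E2 reporter cells.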
# [12] = qHTS assay to identify small molecule antagonists of the androgen receptor (AR) signaling pathway using the MDA cell line - cell viability counter screen (AID 743041; further: on the % scale 0 is the no-effect control and ±100 the full control effect; nearly all actives have a fitted effect of over 45% in size); details: MDA-kb2 viability, CellTiter-Fluor, 16 h, cells co-treated with R1881 androgen agonist; viability change, negative = cytotoxic: at 70.3 µM (top of the series) unless noted
# Summary of the method: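 MDA-kb2 AR-luc cells (MMTV-luciferase, AR/GR responsive) treated with compounds plus R1881 agonist for 16 h at 37C. CellTiter-Fluor added at 15.5 h; fluorescence read after 30 min in the same wells.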
# Tags describe the fitted curve by direction and shape or compound fluorescence and quenching.
structure (smiles),measurement,setting,value
CCOC(=O)CC(C)C,Potency,[1],inactive
same,Potency,[2],inactive
same,Potency,[3],inactive
CCCCCCCC/C=C\CCCCCCCC(=O)OCCO,Potency,[1],"inconclusive: 114 µM [cytotoxic, single point]"
same,Potency,[2],"inconclusive: 102 µM [cytotoxic, single point]"
same,Potency,[3],"inconclusive: 51.1 µM [inhibitor, partial curve]"
same,Potency,[4],inactive
S=C([S-])NCCNC(=S)[S-].S=C([S-])NCCNC(=S)[S-].[Mn+2].[Zn+2],Potency,[1],"inconclusive: 33.5 µM [cytotoxic, single point]"
same,Potency,[2],inconclusive: 33.5 µM [cytotoxic]
same,Potency,[3],inconclusive: 33.5 µM [inhibitor]
same,Potency,[5],"inconclusive: 13.4 µM [rising, single point]"
same,Potency,[6],"inconclusive: 33.5 µM [rising, single point]"
CN(C)Cc1ccccc1O,Potency,[1],"inconclusive: 68.6 µM [rising, single point]"
same,Potency,[7],inactive
same,Potency,[4],inactive
same,Potency,[5],inactive
O=C1N=C(O)CN1/N=C/c1ccc(-c2ccc([N+](=O)[O-])cc2)o1,Potency,[1],"inconclusive: 33.5 µM [cytotoxic, single point]"
same,Potency,[8],"inconclusive: 61.6 µM [cytotoxic, partial curve, poor fit]"
same,Potency,[3],"inconclusive: 13.3 µM [inhibitor, partial curve]"
same,Potency,[6],"inconclusive: 26.6 µM [cytotoxic, partial curve] and active: 48.6 µM"
same,Potency,[9],"inconclusive: 54.5 µM [cytotoxic, partial curve]"
O=C(O)CN(CCN(CC(=O)O)CC(=O)O)CCN(CC(=O)O)CC(=O)O,Potency,[1],active: 18.8 µM
same,Potency,[2],active: 26.6 µM
same,Potency,[3],"inconclusive: 21.1 µM [inhibitor, partial curve]"
CN(C)CC[C@@H](c1ccc(Cl)cc1)c1ccccn1,Potency,[1],"inconclusive: 33.5 µM [cytotoxic, single point]"
same,Potency,[2],"inconclusive: 33.5 µM [cytotoxic, single point]"
same,Potency,[3],"inconclusive: 29.8 µM [inhibitor, single point]"
same,Potency,[5],"inconclusive: 1.07 µM [rising, full curve, poor fit]"
same,Potency,[6],"inconclusive: 11.9 µM [cytotoxic, single point]"
O=C(c1ccc(O)cc1)c1ccc(Cl)cc1,Potency,[1],"inconclusive: 70.1 µM [cytotoxic, single point]"
same,Potency,[2],"inconclusive: 31.3 µM [cytotoxic, single point]"
same,Potency,[3],"inconclusive: 78.6 µM [inhibitor, single point]"
O=c1c(-c2ccc(O)cc2)coc2cc(O)ccc12,Potency,[1],"inconclusive: 15.2 µM [rising, partial curve]"
same,Potency,[10],"inconclusive: 0.544 µM [rising, full curve, poor fit]"
same,Potency,[7],inconclusive: 3.85 µM
same,Potency,[5],"inconclusive: 13.7 µM [cytotoxic, partial curve, poor fit]"
same,Potency,[11],"inconclusive: 10.8 µM [rising, partial curve]"
CCCCCCCCCCC(=O)O,Potency,[1],inactive
same,Potency,[12],inactive
same,Potency,[4],"inconclusive: 22.1 µM [rising, full curve, poor fit]"
same,Potency,[9],inactive
CCCCCCOC(=O)CC(CC(=O)OCCCCCC)(OC(=O)CCC)C(=O)OCCCCCC,Potency,[1],inactive
same,"activity change, negative = inhibition",[10],inconclusive: -0.791%
same,Potency,[7],inactive
same,Potency,[2],"inconclusive: 43.3 µM [rising, partial curve, poor fit]"
CCCc1nc2c(C)cc(-c3nc4ccccc4n3C)cc2n1Cc1ccc(-c2ccccc2C(=O)O)cc1,Potency,[1],inactive
same,Potency,[2],"inconclusive: 29.8 µM [cytotoxic, single point]"
same,Potency,[3],"inconclusive: 29.8 µM [inhibitor, partial curve]"
same,Potency,[4],"inconclusive: 9.52 µM [fluorescent, full curve, poor fit]"
same,Potency,[5],inactive
CC(COc1ccc(C(C)(C)C)cc1)OS(=O)OCCCl (stereo not drawn),Potency,[1],inactive
same,Potency,[2],inactive
Cl[Si](Cl)(c1ccccc1)c1ccccc1,Potency,[1],"inconclusive: 78.7 µM [rising, single point]"
same,Potency,[2],inconclusive: 70.1 µM [cytotoxic]
same,Potency,[3],"inconclusive: 62.5 µM [inhibitor, single point]"
Cc1cc(Cl)c(C)cc1Cl,Potency,[1],"inconclusive: 68.6 µM [cytotoxic, single point]"
same,"activity change, negative = inhibition",[10],inconclusive: -34.2%
same,Potency,[7],inactive
